The list shows a part of the results. The full chains were built here from the parent and the listed change. Inactive controls read about 0.05.
B1: TEV protease; numbered along this chain (parent)
chain: MGESLFKGPRDYNPISSSICHLTNESDGHTTSLYGIGFGPFIITNKHLFRRNNGTLVVQSLHGVFKVKDTTTLQQHLVDGRDMIIIRMPKDFPPFPQKLKFREPQREERICLVTTNFQTKSMSSMVSDTSCTFPSGDGIFWKHWIQTKDGQCGSPLVSTRDGFIVGIHSASNFTNTNNYFTSVPKNFMELLTNQEAQQWVSGWRLNADSVLWGGHKVFMVKPEEPFQPVKEATQL

Variants of: B1
Test: raw area under fraction-flipped curve 0-4 h after induction (AUC4h, not background-subtracted), DNA-recorder readout of cleavage of the substrate (dimensionless); higher = more cleavage of the substrate by the protease variant
Conditions: temperature: 34 °C; time window: 0-4 h after rhamnose induction
Protocol: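 In vivo DNA recorder in E. coli TOP10(DE3) ΔrhaA at 34 °C. Each TEVp single-site mutant (parent TEVp 0) is paired with a single-site variant of the 7-mer TEVs (canonical ENLYFQ|S). The substrate sits between flexible linkers in a Bxb1-sfGFP-TEVs-SsrA fusion, so cleavage stabilises Bxb1 and speeds flipping of a recombination array, read by NGS. The value is the raw area under the fraction-flipped curve over 0-4 h after rhamnose induction (AUC4h), with ≥20 reads per time point. It is not background-subtracted; inactive controls average about 0.047.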
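Further: Bxb1 expression induced with 0.2% (w/v) L-rhamnose at OD600 near 0.5, cultures sampled hourly, flipped fraction per protease–substrate barcode pair counted by paired-end Illumina sequencing.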

Row | Variant | area with substrate CNLYFQS | area with substrate FNLYFQS | area with substrate GNLYFQS | area with substrate HNLYFQS | area with substrate INLYFQS | area with substrate KNLYFQS | area with substrate MNLYFQS | area with substrate NNLYFQS | area with substrate PNLYFQS | area with substrate SNLYFQS | area with substrate TNLYFQS | area with substrate WNLYFQS | area with substrate LNLYFQS | area with substrate VNLYFQS | area with substrate YNLYFQS | area with substrate RNLYFQS | area with substrate QNLYFQS | area with substrate DNLYFQS
1 | F65E | 0.0578 | 0.0675 | 0.0652 | 0.062 | 0.0565 | 0.0723 | 0.0529 | 0.0535 | 0.062 | 0.0593 | 0.0914 | 0.0587 | – | – | – | – | – | –
2 | F65R | 0.0658 | – | 0.0641 | 0.0684 | 0.0811 | 0.0677 | 0.0726 | 0.0621 | – | 0.0585 | 0.0639 | 0.0521 | 0.0588 | 0.0622 | 0.048 | – | – | –
3 | N52Y | 0.0559 | – | – | 0.0503 | 0.0582 | 0.0586 | 0.069 | – | 0.0639 | 0.0656 | 0.0598 | 0.062 | 0.0565 | 0.0639 | 0.0653 | 0.07 | – | –
4 | N52S | 0.0651 | – | – | 0.0376 | 0.0603 | 0.0603 | 0.0782 | – | 0.0599 | 0.0578 | 0.0696 | 0.0613 | 0.0627 | 0.0485 | 0.0521 | – | 0.0603 | –
5 | N52T | 0.0571 | – | 0.0825 | 0.0642 | 0.0577 | – | – | – | – | – | 0.0538 | 0.0976 | 0.0596 | 0.0511 | 0.0573 | 0.0586 | – | –
6 | N52M | 0.0468 | – | – | – | 0.0643 | – | 0.0654 | – | 0.0607 | – | 0.067 | 0.0608 | – | – | 0.0544 | – | – | –
7 | N52I | 0.0656 | – | – | 0.0496 | – | – | – | – | – | 0.0384 | – | 0.0631 | 0.0608 | – | – | – | – | 0.0733
8 | N52F | 0.066 | 0.0577 | – | 0.051 | – | 0.0634 | 0.0277 | 0.0552 | 0.0585 | 0.0582 | 0.0735 | 0.0677 | 0.0608 | 0.0585 | 0.0582 | – | 0.0462 | –
9 | H62N | 0.0474 | – | 0.0872 | 0.0638 | – | – | – | – | 0.0739 | – | 0.0794 | 0.0742 | 0.0606 | – | 0.0439 | – | 0.0768 | 0.0873
10 | H47R | 0.0709 | 0.0742 | – | 0.0611 | – | – | 0.055 | – | 0.0612 | 0.0592 | 0.0509 | 0.0503 | – | – | 0.0662 | 0.0371 | – | –
11 | H47A | 0.0519 | – | 0.0396 | 0.0672 | 0.0661 | – | 0.0806 | 0.0564 | 0.0325 | 0.0596 | – | 0.0522 | 0.0719 | – | – | – | – | –
12 | Q74H | 0.0782 | – | – | – | 0.0619 | 0.0624 | 0.0566 | – | – | – | 0.0584 | – | 0.0597 | 0.0612 | – | – | – | 0.065
13 | Q74D | 0.0676 | 0.077 | 0.0696 | 0.0454 | 0.0612 | 0.067 | 0.0715 | – | 0.0445 | 0.0562 | 0.0747 | 0.115 | 0.066 | 0.0685 | 0.072 | 0.0615 | – | –
14 | Q74G | 0.0903 | – | 0.0634 | 0.0645 | 0.0569 | 0.0573 | – | 0.0752 | 0.0655 | 0.0643 | 0.0718 | 0.0641 | 0.0693 | 0.068 | 0.0537 | 0.0488 | – | –
15 | T44Q | 0.0534 | – | 0.0358 | 0.0378 | 0.0379 | 0.004 | – | 0.0184 | 0.0457 | 0.041 | 0.0477 | 0.0515 | 0.0502 | 0.0378 | 0.062 | – | 0.0444 | –
16 | T44L | 0.055 | 0.0619 | 0.0591 | 0.0461 | 0.0465 | 0.0629 | 0.0434 | 0.0545 | 0.0505 | 0.0593 | 0.0492 | 0.0323 | 0.0558 | 0.0578 | 0.0568 | – | – | –
17 | R50L | 0.0747 | 0.0499 | 0.0578 | 0.0571 | – | 0.054 | – | – | 0.0587 | 0.0482 | 0.0601 | 0.0827 | – | 0.056 | 0.0586 | 0.0695 | – | –
18 | V67R | 0.0572 | 0.048 | 0.0501 | 0.0536 | 0.0489 | – | 0.0462 | – | 0.0541 | 0.0443 | 0.0501 | 0.0492 | 0.0447 | – | 0.0345 | – | – | –
19 | K68F | 0.0811 | – | 0.0958 | – | – | 0.0073 | – | – | – | 0.0502 | 0.0597 | 0.0652 | 0.0821 | – | – | 0.0597 | – | 0.0701
20 | F49H | 0.0589 | 0.0566 | 0.0563 | 0.0436 | 0.0509 | 0.0506 | 0.0404 | 0.0507 | 0.0494 | 0.0451 | 0.0603 | 0.0645 | – | – | 0.0469 | – | – | –
21 | K46F | 0.0593 | – | – | 0.0626 | – | 0.0673 | 0.055 | – | 0.0474 | 0.101 | 0.0466 | 0.0538 | 0.0708 | – | 0.0554 | – | – | –
22 | K46R | 0.0572 | – | 0.0719 | 0.0579 | 0.0717 | 0.0631 | 0.0755 | 0.0468 | 0.0606 | 0.0772 | 0.0828 | 0.0565 | 0.0702 | – | 0.0482 | – | – | –
23 | K46E | 0.0503 | 0.0715 | 0.0455 | 0.0674 | 0.0606 | 0.0662 | 0.049 | 0.0614 | 0.0568 | 0.0535 | 0.0547 | 0.052 | 0.0621 | 0.0679 | 0.0487 | – | – | –
24 | V57Y | 0.0605 | – | – | 0.066 | 0.056 | 0.042 | 0.0401 | – | 0.0618 | 0.055 | 0.0641 | – | – | – | 0.0484 | – | – | –
25 | V57T | 0.0689 | 0.0681 | – | – | 0.0508 | – | 0.0601 | 0.0655 | – | 0.0749 | 0.0733 | 0.0507 | – | – | 0.0732 | – | – | –
26 | V57M | 0.0712 | – | 0.0635 | 0.0659 | 0.0628 | 0.0666 | 0.0717 | – | 0.0754 | 0.0681 | 0.0757 | 0.0618 | 0.0578 | 0.0659 | 0.0385 | 0.0543 | – | –
27 | V57K | 0.0731 | – | – | 0.069 | 0.062 | – | – | 0.0604 | 0.0603 | 0.0358 | 0.066 | 0.0617 | 0.0489 | – | 0.0607 | – | – | –
28 | K66F | 0.0561 | 0.0671 | 0.0822 | 0.0422 | 0.0771 | 0.0738 | 0.0513 | 0.0675 | 0.0701 | – | 0.0476 | 0.0694 | 0.0648 | 0.0721 | 0.0726 | 0.0552 | 0.0711 | –
29 | K66R | 0.0741 | – | – | 0.062 | – | 0.0557 | – | 0.0643 | 0.0636 | 0.0721 | 0.0642 | 0.0423 | – | – | 0.0382 | 0.0871 | – | –

— the supplement of paper PMC12217912
